Reference: PMC8625052, “The Antiarrhythmic Activity of Novel Pyrrolidin-2-one Derivative S-75 in Adrenaline-Induced Arrhythmia” (Pharmaceuticals, 2021)

System: voltage-gated sodium channels (site 2)

Structure (SMILES) | IC50 (rat cortex tissue, [3H]-batrachotoxin, read-out: Na+ (IC50 [μM])) | affinity toward sodium channel, times lower than veratridine (vs reference veratridine)
COc1ccc(C(=O)O[C@H]2CC[C@@]3(C)[C@@H]4CC[C@H]5[C@]6(O)C[C@H](O)[C@@]7(O)[C@@H](CN8C[C@@H](C)CC[C@H]8[C@@]7(C)O)[C@]6(O)C[C@@]53O[C@]24O)cc1OC [Veratridine, reference compound] | 16.7 µM | –
Cl.O=C1CCCN1CCCCN1CCN(c2ccccc2Cl)CC1 [S-75, 1-(4-(4-(2-chlorophenyl)piperazin-1-yl)butyl)pyrrolidin-2-one hydrochloride] | – | about 3.5 times
